{"source": "paper PMC4336329", "about": "(PLoS ONE, 2015)", "note": "About 2,200 (0.71%) of roughly 310,000 compounds showed an effect of 50% or more. Effects have a minus sign here. The list shows a part of the results."}
{"biological_target": "human ether-à-go-go-related gene (hERG) potassium channel (human, UniProt Q12809)", "sequence (Q12809 whole entry, looked up)": "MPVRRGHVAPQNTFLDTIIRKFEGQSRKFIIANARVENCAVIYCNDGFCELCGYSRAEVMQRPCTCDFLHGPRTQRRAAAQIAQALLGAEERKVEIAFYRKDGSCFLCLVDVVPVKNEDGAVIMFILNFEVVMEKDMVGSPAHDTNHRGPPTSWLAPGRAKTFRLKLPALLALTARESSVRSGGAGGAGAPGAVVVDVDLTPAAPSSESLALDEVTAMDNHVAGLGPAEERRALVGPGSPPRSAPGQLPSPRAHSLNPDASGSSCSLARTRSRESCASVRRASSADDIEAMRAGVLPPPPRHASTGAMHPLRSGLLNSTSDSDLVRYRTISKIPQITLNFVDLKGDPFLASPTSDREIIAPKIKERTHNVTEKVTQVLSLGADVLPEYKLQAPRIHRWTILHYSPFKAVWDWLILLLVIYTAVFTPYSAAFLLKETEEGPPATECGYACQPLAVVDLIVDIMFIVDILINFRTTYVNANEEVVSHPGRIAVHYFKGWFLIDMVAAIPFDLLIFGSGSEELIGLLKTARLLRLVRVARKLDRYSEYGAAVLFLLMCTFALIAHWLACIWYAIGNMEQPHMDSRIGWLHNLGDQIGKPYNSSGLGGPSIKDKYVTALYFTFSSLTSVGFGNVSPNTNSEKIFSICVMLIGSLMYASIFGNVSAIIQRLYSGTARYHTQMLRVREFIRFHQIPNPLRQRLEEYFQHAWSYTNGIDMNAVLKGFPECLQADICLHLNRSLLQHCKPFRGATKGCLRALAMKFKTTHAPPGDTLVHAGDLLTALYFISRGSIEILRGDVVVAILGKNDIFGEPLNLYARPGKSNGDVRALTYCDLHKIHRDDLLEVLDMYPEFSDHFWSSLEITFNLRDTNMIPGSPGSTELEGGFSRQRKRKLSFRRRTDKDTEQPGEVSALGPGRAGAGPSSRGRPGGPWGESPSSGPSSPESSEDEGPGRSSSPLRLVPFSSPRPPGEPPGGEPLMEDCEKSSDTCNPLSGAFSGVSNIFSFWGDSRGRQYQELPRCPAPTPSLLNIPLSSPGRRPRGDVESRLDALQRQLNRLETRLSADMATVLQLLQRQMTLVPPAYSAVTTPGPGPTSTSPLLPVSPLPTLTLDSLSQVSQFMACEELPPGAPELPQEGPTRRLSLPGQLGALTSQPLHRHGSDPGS", "test": "primary screen, population patch clamp on CHO cells stably expressing hERG", "units": {"hERG current change (%, negative = inhibition) at 1uM": "%"}}
{"smiles": "CCN(CC)c1ccc(S(=O)(=O)N2CCCCC2)cc1NC(=O)CN1C(=O)NC2(CCCC2)C1=O", "hERG current change (%, negative = inhibition) at 1uM": 7.63}
{"smiles": "CCN(CC)S(=O)(=O)c1ccc(NC(=O)c2nc3nc(C)cc(C)n3n2)cc1", "hERG current change (%, negative = inhibition) at 1uM": 6.45}
{"smiles": "Cc1ccc2nc(NC(=O)C3=NN(c4ccccc4)C(=O)CC3)sc2c1", "hERG current change (%, negative = inhibition) at 1uM": 16.7}
{"smiles": "Cc1ccc(CC(=O)Nc2cccnc2)cc1", "hERG current change (%, negative = inhibition) at 1uM": 14.2}
{"smiles": "COc1cc(Cl)ccc1OCc1cc(C(=O)N2CCN(C)CC2)no1", "hERG current change (%, negative = inhibition) at 1uM": 6.01}
{"smiles": "CCCCc1nc2ccccc2c(=O)n1-c1ccc(O)cc1", "hERG current change (%, negative = inhibition) at 1uM": 5.23}
{"smiles": "Cc1ccc(C)c(OCC(=O)NNC(=O)CSC(=S)N2CCCC2)c1", "hERG current change (%, negative = inhibition) at 1uM": 11.2}
{"smiles": "CC#CCN1c2ccccc2[C@]23C[C@@H](C(=O)OC)N(C(=O)NC4CCCCC4)C2=NC(C(=O)OC)=C(C(=O)OC)[C@H]13", "hERG current change (%, negative = inhibition) at 1uM": 14.6}
{"smiles": "Cc1cccc(C)c1NC(=S)N(CCN(C)C)C(C)c1ccccn1", "note": "(stereo not shown)", "hERG current change (%, negative = inhibition) at 1uM": 9.46}
{"smiles": "CCOc1ccc(C(=O)NCC(c2cccs2)N(C)C)cc1", "note": "(stereo not shown)", "hERG current change (%, negative = inhibition) at 1uM": -9.71}
{"smiles": "Cc1ccnc(NC(=O)CNC(=O)COc2ccccc2)c1", "hERG current change (%, negative = inhibition) at 1uM": 2.14}
{"smiles": "CCCOc1ccc(-c2nc(C#N)c(N3CCC(C(N)=O)CC3)o2)cc1", "hERG current change (%, negative = inhibition) at 1uM": 2.52}
{"smiles": "COc1ccc(Br)cc1C(=O)Nc1ccc(N2CCN(S(C)(=O)=O)CC2)cc1", "hERG current change (%, negative = inhibition) at 1uM": 10.5}
{"smiles": "O=C(CSc1ncccn1)NCc1cccc(Cl)c1", "hERG current change (%, negative = inhibition) at 1uM": 5.65}
{"smiles": "Cn1cc(Br)c(C(=O)N/N=C/c2cc3ccccc3nc2Cl)n1", "hERG current change (%, negative = inhibition) at 1uM": 8.63}
{"smiles": "Cc1cc(NC(=O)Cn2ccc([N+](=O)[O-])n2)no1", "hERG current change (%, negative = inhibition) at 1uM": 16.2}
{"smiles": "CCCc1nnc(NC(=O)Cn2c(=O)sc3ccccc32)s1", "hERG current change (%, negative = inhibition) at 1uM": 7.77}
{"smiles": "COc1cc(-c2noc(C)c2C#Cc2ccccn2)cc(OC)c1OC", "hERG current change (%, negative = inhibition) at 1uM": 13.6}
{"smiles": "CCCSc1nnc2nc3c(nn12)c1ccccc1n3C", "hERG current change (%, negative = inhibition) at 1uM": 4.67}
{"smiles": "O=C(CSc1ncnc2nc[nH]c12)N1CCN(c2ccc(Cl)cc2)CC1", "hERG current change (%, negative = inhibition) at 1uM": 6.36}
{"smiles": "CCC1SC(CC)C(=O)N(CC(=O)Nc2ccc3c(c2)OCO3)C1=O", "note": "(stereo not shown)", "hERG current change (%, negative = inhibition) at 1uM": 10.2}
{"smiles": "CC(C)NC(=O)CCCN1C(=O)c2ccccc2Sc2ncccc21", "hERG current change (%, negative = inhibition) at 1uM": 21.2}
{"smiles": "Cl.O=C(CCN1CCC(c2ccccc2)C1)c1ccc2c(c1)OCCO2", "note": "(stereo not shown)", "hERG current change (%, negative = inhibition) at 1uM": -25}
{"smiles": "O=C(COC(=O)CCc1c[nH]c(=O)[nH]1)Nc1ccccc1Cl", "hERG current change (%, negative = inhibition) at 1uM": -0.63}
{"smiles": "CC(O)CNCc1ccc(Cl)cc1Cl.Cl", "note": "(stereo not shown)", "hERG current change (%, negative = inhibition) at 1uM": 14.1}
{"smiles": "O=C(/C=C/c1ccccc1)N/C(=C/c1ccccc1)C(=O)N1CCOCC1", "hERG current change (%, negative = inhibition) at 1uM": -15.8}
{"smiles": "O=C(Nc1ccncc1)c1cncc(Br)c1", "hERG current change (%, negative = inhibition) at 1uM": 12}
{"smiles": "CCCCn1c(N)c(N(CC(C)C)C(=O)c2ccc(F)c(S(=O)(=O)N3CCOCC3)c2)c(=O)[nH]c1=O", "hERG current change (%, negative = inhibition) at 1uM": 3.21}
{"smiles": "COc1ccc(/C=N/NC(=O)CSc2nnc(CCCc3ccc(OC)c(C)c3)o2)cc1", "hERG current change (%, negative = inhibition) at 1uM": 6.57}
{"smiles": "CC(=O)Nc1ccc(OS(=O)(=O)c2c(C)cc(C)cc2C)cc1", "hERG current change (%, negative = inhibition) at 1uM": 3.73}
{"smiles": "N#Cc1c(NC(=O)C2CC(c3ccccc3Cl)=NO2)sc2c1CCC2", "note": "(stereo not shown)", "hERG current change (%, negative = inhibition) at 1uM": 14.9}
{"smiles": "O=C(NC1CCCCCC1)c1cc(-c2ccccn2)nc2ccccc12", "hERG current change (%, negative = inhibition) at 1uM": 9.3}
{"smiles": "CN(CC(=O)Nc1cccc(F)c1)C(=O)c1ccc(C2SCCS2)cc1", "hERG current change (%, negative = inhibition) at 1uM": 18.9}
{"smiles": "O=C(O)COc1ccc2oc3c(c2c1)CCCC3", "hERG current change (%, negative = inhibition) at 1uM": 10.6}
{"smiles": "O=c1[nH]c(CSc2nnc(Nc3ccccc3)s2)nc2ccccc12", "hERG current change (%, negative = inhibition) at 1uM": 3.83}
{"smiles": "COc1ccc(C(=O)NCC(=O)OCC(=O)NCCC2=CCCCC2)cc1", "hERG current change (%, negative = inhibition) at 1uM": 2.19}
{"smiles": "O=C(Nc1cccc(F)c1)N1CCCC(CNS(=O)(=O)Cc2ccccc2)C1", "note": "(stereo not shown)", "hERG current change (%, negative = inhibition) at 1uM": 2.98}
{"smiles": "CC1CC(=O)N(CC(=O)Nc2ccc3c(c2)OCO3)c2ccccc2S1", "note": "(stereo not shown)", "hERG current change (%, negative = inhibition) at 1uM": 3.42}
{"smiles": "CC1SCC(=O)N(CC(=O)Nc2ccc3c(c2)OCO3)C1=O", "note": "(stereo not shown)", "hERG current change (%, negative = inhibition) at 1uM": 14.1}
{"smiles": "COc1cc(OC)c(OC)cc1/C=N/NC(=S)NCC1CCCO1", "note": "(stereo not shown)", "hERG current change (%, negative = inhibition) at 1uM": 10.5}
{"smiles": "O=C(Nc1ccc([N+](=O)[O-])cc1)C1C(c2ccccc2)=C1c1ccccc1", "hERG current change (%, negative = inhibition) at 1uM": -4.83}
{"smiles": "Cc1noc(C)c1S(=O)(=O)Nc1ccccc1OC(F)(F)F", "hERG current change (%, negative = inhibition) at 1uM": 3.46}
{"smiles": "COc1cccc(CSCC(=O)NCCc2ccccc2)c1OC", "hERG current change (%, negative = inhibition) at 1uM": 8.85}
{"smiles": "COc1ccccc1COC(=O)Nc1c(C)nn(C)c1Cl", "hERG current change (%, negative = inhibition) at 1uM": 2.28}
{"smiles": "CC(=O)Nc1ccc(NC(=O)/C=C/c2ccc(Cl)cc2)cc1", "hERG current change (%, negative = inhibition) at 1uM": 5.22}
{"smiles": "Cc1ccc(-n2c(O)c(C=NCCCn3ccnc3)c(=O)[nH]c2=O)cc1", "hERG current change (%, negative = inhibition) at 1uM": 11.9}
{"smiles": "Cc1ccc(CCNC(=O)C2CCCN(S(C)(=O)=O)C2)cc1", "note": "(stereo not shown)", "hERG current change (%, negative = inhibition) at 1uM": 13}
{"smiles": "CC(=O)Nc1cccc(NC(=O)CCc2ccccc2)c1", "hERG current change (%, negative = inhibition) at 1uM": 8.4}
{"smiles": "CCOC(=O)N1CCN(C(=O)CSc2ccc(-c3cccnc3)nn2)CC1", "hERG current change (%, negative = inhibition) at 1uM": 14.9}
{"smiles": "Cc1cnc(NC(=O)CCNC(=O)c2ccc([N+](=O)[O-])cc2)s1", "hERG current change (%, negative = inhibition) at 1uM": 7.22}
{"smiles": "COc1cccc(C(C(=O)NC(C)(C)C)N(CCC(C)C)C(=O)CCC(=O)Nc2cc(C)on2)c1OC", "note": "(stereo not shown)", "hERG current change (%, negative = inhibition) at 1uM": 6.26}
{"smiles": "COc1ccc(/C=N/NC(=O)c2cccnc2)cc1Cn1nc([N+](=O)[O-])c(Br)c1C", "hERG current change (%, negative = inhibition) at 1uM": 3.02}
{"smiles": "CCOC(=O)Cc1[nH]nc2c1C(Cc1ccccc1)C(C#N)=C(N)O2", "note": "(stereo not shown)", "hERG current change (%, negative = inhibition) at 1uM": 9.9}
{"smiles": "Cc1nc(NC(=O)c2cc3ccccc3o2)ccc1Br", "hERG current change (%, negative = inhibition) at 1uM": 10.2}
{"smiles": "Cc1ccsc1C(=O)OC1CCOC1=O", "note": "(stereo not shown)", "hERG current change (%, negative = inhibition) at 1uM": 9.59}
{"smiles": "COc1cc(C(=O)Nc2ccc(C)cn2)ccc1OCC(=O)N1CCOCC1", "hERG current change (%, negative = inhibition) at 1uM": 1.73}
{"smiles": "Cc1ccc(S(=O)(=O)CCC(=O)NCc2ccccc2Cl)cc1", "hERG current change (%, negative = inhibition) at 1uM": 8.74}
{"smiles": "CCOC(=O)c1ccc(Nc2cc(C)nc(-c3ccccc3)n2)cc1", "hERG current change (%, negative = inhibition) at 1uM": 7}
